Experiment [1] addresses Recombinant human sTNF (soluble form of tumor necrosis factor) (human) (UniProt P01375). The experiment can be described thus: SPR; ligand (50 μg/mL sTNF or TNF-β) immobilised on a ProteOn GLH chip by amine coupling; chip flushed with running buffer for two days and several times with 10 mM glycine pH 3.3 to dissociate sTNF multimers (monomeric sTNF); Ca2+-loaded S100 protein as analyte, 10 nM–2 µM; 25 °C; 10 mM HEPES, 150 mM NaCl, 1 mM CaCl2, 0.05% TWEEN 20, pH 7.4; heterogeneous ligand model; both purified. For orientation: SPR reads the build-up and loss of mass on a sensor chip optically.

Amino acid sequences for entries named in this document (tags omitted). A change or cut given only in a name is not applied to a line headed by its entry. Chains listed by the source or under a name are the forms on record and can include a tag or linker.
Recombinant human sTNF (soluble form of tumor necrosis factor) (P01375, form named): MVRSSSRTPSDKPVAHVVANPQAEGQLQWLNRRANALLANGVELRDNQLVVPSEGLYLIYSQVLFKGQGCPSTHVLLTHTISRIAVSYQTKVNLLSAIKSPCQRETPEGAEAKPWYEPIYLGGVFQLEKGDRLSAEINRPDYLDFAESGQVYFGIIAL

For experiment [2] the target is unchanged. Description: cross-linking; 4 µM sTNF and/or S100 protein (sTNF to S100 1:0, 0:1, 1:0.5, 1:1, 1:2), 20 mM EDAC and 5 mM sulfo-NHS, 25 °C, 1.5 h; 10 mM HEPES, 150 mM NaCl, pH 7.4 with 1 mM CaCl2; SDS-PAGE with silver staining; both purified.
Experiment [3] concerns the target T1, Recombinant human TNF-β (human) (UniProt P01374).
T1 sequence: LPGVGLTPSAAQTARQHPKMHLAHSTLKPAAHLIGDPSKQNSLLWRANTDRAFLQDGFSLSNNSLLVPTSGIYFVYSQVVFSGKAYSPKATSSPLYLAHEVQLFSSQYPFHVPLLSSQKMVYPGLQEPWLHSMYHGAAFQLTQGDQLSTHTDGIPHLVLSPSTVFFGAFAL
Description: SPR; ligand (50 μg/mL sTNF or TNF-β) immobilised on a ProteOn GLH chip by amine coupling; chip flushed with running buffer for two days and several times with 10 mM glycine pH 3.3 to dissociate sTNF multimers (monomeric sTNF); Ca2+-loaded S100 protein as analyte, 10 nM–2 µM; 25 °C; 10 mM HEPES, 150 mM NaCl, 1 mM CaCl2, 0.05% TWEEN 20, pH 7.4; heterogeneous ligand model; both purified.

This note sets out measurements from publication PMC9783754.

These are yes or no findings as the source states them, for the method shown. Some results given as binding are weak or reduced against the parent protein; the word gives no strength.

B1: Recombinant human S100A14 (protein, UniProt Q9HCY8 1-104)
chain: MGQCRSANAEDAQEFSDVERAIETLIKNFHQYSVEGGKETLTPSELRDLVTQQLPHLMPSNCGLEEKIANLGSCNDSKLEFRSFWELIGEAAKSVKLERPVRGH
In the case of B1, the binding result in experiment [1] is recorded as “no binding (tested: up to 2 µM; Kd exceed 10^−4 M)”.

B2: Recombinant human S100A13 (protein, UniProt Q99584 1-98)
chain: MAAEPLTELEESIETVVTTFFTFARQEGRKDSLSVNEFKELVTQQLPHLLKDVGSLDEKMKSLDVNQDSELKFNEYWRLIGELAKEIRKKKDLKIRKK
Regarding B2, the binding result in experiment [2] was “binds”; in experiment [3] it was “no binding (tested: 2 µM)”.

B3: Recombinant human S100A3 (protein, UniProt P33764 1-101)
chain: MARPLEQAVAAIVCTFQEYAGRCGDKYKLCQAELKELLQKELATWTPTEFRECDYNKFMSVLDTNKDCEVDFVEYVRSLACLCLYCHEYFKDCPSEPPCSQ
For B3, in experiment [1], the binding entry was “no binding (tested: up to 2 µM; Kd exceed 10^−4 M)”.

B4: Recombinant human S100A11 (protein, UniProt P31949 1-105)
chain: MAKISSPTETERCIESLIAVFQKYAGKDGYNYTLSKTEFLSFMNTELAAFTKNQKDPGVLDRMMKKLDTNSDGQLDFSEFLNLIGGLAMACHDSFLKAVPSQKRT
With B4, the results for the binding entry in experiment [2] and in experiment [3] were “binds” and “no binding (tested: 2 µM)”, respectively.

B5: Recombinant human S100B (protein, UniProt P04271 1-92)
chain: MSELEKAMVALIDVFHQYSGREGDKHKLKKSELKELINNELSHFLEEIKEQEVVDKVMETLDNDGDGECDFQEFMAFVAMVTTACHEFFEHE
For the molecule B5, in experiment [1], the binding entry is reported as “no binding (tested: up to 2 µM; Kd exceed 10^−4 M)”.

B6: Recombinant human S100A8 (protein, UniProt P05109 1-93)
chain: MLTELEKALNSIIDVYHKYSLIKGNFHAVYRDDLKKLLETECPQYIRKKGADVWFKELDINTDGAVNFQEFLILVIKMGVAAHKKSHEESHKE
On to B6, for which the binding result in experiment [1] is reported as “no binding (tested: up to 2 µM; Kd exceed 10^−4 M)”.

B7: Recombinant human S100A15 (protein, UniProt Q86SG5 1-101)
chain: MSNTQAERSIIGMIDMFHKYTGRDGKIEKPSLLTMMKENFPNFLSACDKKGIHYLATVFEKKDKNEDKKIDFSEFLSLLGDIAADYHKQSHGAAPCSGGSQ
As for B7, in experiment [1], the binding result is on record as “no binding (tested: up to 2 µM; Kd exceed 10^−4 M)”.

B8: Recombinant human S100A7 (protein, UniProt P31151 1-101)
chain: MSNTQAERSIIGMIDMFHKYTRRDDKIEKPSLLTMMKENFPNFLSACDKKGTNYLADVFEKKDKNEDKKIDFSEFLSLLGDIATDYHKQSHGAAPCSGGSQ
B8: the binding result in experiment [1] is on record as “no binding (tested: up to 2 µM; Kd exceed 10^−4 M)”.

B9: Recombinant human S100A16 (protein, UniProt Q96FQ6 1-103)
chain: MSDCYTELEKAVIVLVENFYKYVSKYSLVKNKISKSSFREMLQKELNHMLSDTGNRKAADKLIQNLDANHDGRISFDEYWTLIGGITGPIAKLIHEQEQQSSS
Regarding B9, the binding result in experiment [1] was “no binding (tested: up to 2 µM; Kd exceed 10^−4 M)”.

B10: Recombinant human S100A5 (protein, UniProt P33763 1-92)
chain: METPLEKALTTMVTTFHKYSGREGSKLTLSRKELKELIKKELCLGEMKESSIDDLMKSLDKNSDQEIDFKEYSVFLTMLCMAYNDFFLEDNK
As for B10, the binding entry in experiment [1] was “no binding (tested: up to 2 µM; Kd exceed 10^−4 M)”.

B11: Recombinant human S100A9 (protein, UniProt P06702 1-114)
chain: MTCKMSQLERNIETIINTFHQYSVKLGHPDTLNQGEFKELVRKDLQNFLKKENKNEKVIEHIMEDLDTNADKQLSFEEFIMLMARLTWASHEKMHEGDEGPGHHHKPGLGEGTP
As to B11, the binding result in experiment [1] is listed as “no binding (tested: up to 2 µM; Kd exceed 10^−4 M)”.

B12: Recombinant human S100A12 (protein, UniProt P80511 1-92)
chain: MTKLEEHLEGIVNIFHQYSVRKGHFDTLSKGELKQLLTKELANTIKNIKDKAVIDEIFQGLDANQDEQVDFQEFISLVAIALKAAHYHTHKE
Take B12: the figures for the binding result in experiment [2] and in experiment [3] were “binds” and “no binding (tested: 2 µM)”, respectively.

B13: Recombinant human S100P (protein, UniProt P25815 1-95)
chain: MTELETAMGMIIDVFSRYSGSEGSTQTLTKGELKVLMEKELPGFLQSGKDKDAVDKLLKDLDANGDAQVDFSEFIVFVAAITSACHKYFEKAGLK
As to B13, in experiment [1], the binding result was “no binding (tested: up to 2 µM; Kd exceed 10^−4 M)”.
